Assay results from article PMC4336329 (PLoS ONE, 2015).
Hit rate of the full screen: of about 310,000 compounds, about 2,200 (0.71%) showed an effect of 50% or more. The effect is printed as a negative number. The list shows a part of the results.

These compounds were tested against human ether-à-go-go-related gene (hERG) potassium channel (human, UniProt Q12809) (assay: primary screen, population patch clamp on CHO cells stably expressing hERG).
human ether-à-go-go-related gene (hERG) potassium channel, sequence (Q12809 whole entry, looked up): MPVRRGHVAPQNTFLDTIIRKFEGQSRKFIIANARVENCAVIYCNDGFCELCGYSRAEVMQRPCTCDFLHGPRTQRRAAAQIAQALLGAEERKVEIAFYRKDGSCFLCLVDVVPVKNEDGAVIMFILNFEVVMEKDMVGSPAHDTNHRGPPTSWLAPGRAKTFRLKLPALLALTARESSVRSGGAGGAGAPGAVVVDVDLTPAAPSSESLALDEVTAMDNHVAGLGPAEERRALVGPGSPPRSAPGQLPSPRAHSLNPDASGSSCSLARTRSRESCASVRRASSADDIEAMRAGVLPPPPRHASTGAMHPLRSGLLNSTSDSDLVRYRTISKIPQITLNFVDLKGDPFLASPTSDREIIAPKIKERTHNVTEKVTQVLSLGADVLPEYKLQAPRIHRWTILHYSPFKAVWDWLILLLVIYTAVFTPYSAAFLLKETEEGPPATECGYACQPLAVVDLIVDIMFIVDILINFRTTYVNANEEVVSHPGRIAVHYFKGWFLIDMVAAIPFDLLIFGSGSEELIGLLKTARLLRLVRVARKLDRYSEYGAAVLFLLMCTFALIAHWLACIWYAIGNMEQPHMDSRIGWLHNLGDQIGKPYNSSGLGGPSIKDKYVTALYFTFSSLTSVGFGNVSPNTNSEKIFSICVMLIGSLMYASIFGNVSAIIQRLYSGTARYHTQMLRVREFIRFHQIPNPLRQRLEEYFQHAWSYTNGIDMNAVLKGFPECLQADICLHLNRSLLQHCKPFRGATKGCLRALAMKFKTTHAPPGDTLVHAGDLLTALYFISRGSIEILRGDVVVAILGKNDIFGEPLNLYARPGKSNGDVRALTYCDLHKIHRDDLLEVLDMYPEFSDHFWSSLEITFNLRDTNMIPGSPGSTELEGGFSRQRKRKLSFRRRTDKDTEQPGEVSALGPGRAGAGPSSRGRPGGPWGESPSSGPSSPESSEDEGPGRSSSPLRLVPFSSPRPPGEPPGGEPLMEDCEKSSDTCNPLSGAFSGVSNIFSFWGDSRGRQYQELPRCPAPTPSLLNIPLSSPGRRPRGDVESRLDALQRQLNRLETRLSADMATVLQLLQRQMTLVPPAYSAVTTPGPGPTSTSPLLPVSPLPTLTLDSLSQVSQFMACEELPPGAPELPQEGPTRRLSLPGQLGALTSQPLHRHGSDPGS

| SMILES | hERG current change (%, negative = inhibition) at 1uM [%] |
| --- | --- |
| Cc1ccc(-c2csc(N(CCc3ccccc3)C(=O)COc3ccccc3)n2)cc1 | 14 |
| Cc1ccc(NC(=O)CN(C)C(=O)/C=C/c2cccc(F)c2)cc1 | 4.17 |
| O=C(NCc1ccccn1)c1ccccc1-c1ccccc1 | 10.4 |
| Cc1cc(C(=O)N2C(C)CCCC2C)no1 (centres unmarked) | 12 |
| CC[C@H](C)C(C(=O)N1CCN(C(=O)OC(C)(C)C)CC1)n1cc(C(CC(C)C)NC(=O)OC(C)(C)C)nn1 (some centres unmarked) | 18.7 |
| Cc1ccc2c(c1)N(CCC(=O)NCCCOC(C)C)C(=O)C(C)O2 (centres unmarked) | 6.48 |
| Cc1sc2ncnc(N3CCC(C(=O)NNC(=O)c4ccc(F)cc4)CC3)c2c1C | 3.33 |
| O=C(Nc1ccncc1)c1ccc(F)cc1 | 7.66 |
| Cc1c[nH]c2cccc(OCC(O)CNC(C)(C)C)c12.Cl (centres unmarked) | -0.947 |
| O=C1NNC(c2ccccc2)=N/C1=C\c1ccccc1 | 6.67 |
| CCOc1c(Cl)cc(CNc2ccc(S(N)(=O)=O)cc2)cc1OC | -0.0201 |
| Cc1nn(C(C)c2n[nH]c(=S)n2-c2cccc(Cl)c2)c(C)c1[N+](=O)[O-] (centres unmarked) | 7.53 |
| CN(C)C=O.O=C(OCC(=O)N1CCCc2ccccc21)C1CCN(S(=O)(=O)c2cccs2)CC1 | 3.08 |
| NC(=NC(=O)c1ccccc1)N1CCOCC1 | 1.61 |
| O=C(COc1ccc(Cl)cc1)Nc1ccc(CN2CCOCC2)cc1 | -19.9 |
| O=C(NCc1cccnc1)c1cccc(S(=O)(=O)N2CCCC2)c1 | -4.45 |
| Cc1c(C#N)c(O)n(CCO)c(=O)c1N=Nc1ccccc1 | 13.7 |
| C/C(=N/NC(=O)c1cc2ccccc2cc1O)C1C(=O)c2ccccc2C1=O | 20.6 |
| CCOC(=O)c1cn(CC(=O)Nc2cccc(F)c2)nn1 | -19.4 |
| COC(=O)Cc1ccc(NC(=S)NC2CC2)cc1 | -8.1 |
| CCc1nc2sc3ccccc3c(=O)c2c(=O)n1Cc1ccco1 | 7.63 |
| Cc1ccc(CCNC(=O)C23CN(Cc4ccccc4)CC2C(c2ccc([N+](=O)[O-])cc2)=NO3)cc1 (centres unmarked) | -5.81 |
| CN(C)S(=O)(=O)c1ccc2oc(SCC(=O)NCC(F)(F)F)nc2c1 | -8.9 |

| SMILES | hERG current change (%, negative = inhibition) at 1uM [%] |
| --- | --- |
| O=C(O)[C@H]1CCCC[C@H]1C(=O)NCCc1ccccc1 | 3.43 |
| COc1cccc(NC(=O)Nc2ccc3c(c2)CCC3)c1 | 17.6 |
| Cc1ccc(S(=O)(=O)NCCC(=O)Nc2ccc(Cl)c(Cl)c2)cc1 | -3.56 |
| CSc1nnc(Cn2c(=O)sc3ccccc32)n1-c1cccc(Cl)c1 | -11.6 |
| COC(=O)CSc1nnc(CCc2nc3ccccc3[nH]2)n1C | 8.24 |
| COCCn1c(-c2ccccc2)cnc1N | 0.0863 |
| CC(C)=CCN1CCN(Cc2coc3ccc(C)cc3c2=O)CC1CCO (centres unmarked) | 0.0603 |
| COc1cc(/C=C/C(=O)OCc2csc(CC(=O)Nc3ccc(C)cc3)n2)ccc1OCC#N | 14.1 |
| CCOc1ccc(C(=O)Nc2nc3ccccc3[nH]2)cc1OCC | 4.22 |
| COC(=O)C1SCC2C(=O)N(Cc3ccc(Cl)c(Cl)c3)CC(=O)N21 (centres unmarked) | 7.64 |
| O=C1NC[C@H](Cc2ccccc2)N(CCc2cccc(F)c2)C1=O | 6.7 |
| CCC(C)(C)n1nnnc1C(c1ccc(C)cc1)N1CCCC1.Cl (centres unmarked) | 8.27 |
| CN(C(=O)c1ccc(NC(=O)Cc2cccc(NC(=O)C3CCN(C(=O)CCc4ccccc4)CC3)c2)cc1)C1CCCC1 | 16.2 |
| Cc1nc2ccccc2c(=O)n1-c1cccc([N+](=O)[O-])c1 | 10.8 |
| Cc1ccccc1-c1nnn(C/C(N)=N/O)n1 | 15.2 |
| CCOc1ccc(Br)cc1CC(=O)O | 14.5 |
| CC1CCCCN1C(=O)Cn1c(=O)oc2cc(S(=O)(=O)N3CCCC3)ccc21 (centres unmarked) | 15 |
| CCC(C)n1c(O)c(/C=N/NC(=O)c2ccncc2)c(=O)[nH]c1=S (centres unmarked) | 8.24 |
| COC(=O)c1ccc(-c2ccco2)n1Cc1nc(-c2ccc(OC)c(OC)c2)oc1C | 0.0741 |
| COc1ccc(CCN(C)C2CCCN(S(=O)(=O)N(C)C)C2)cc1OC (centres unmarked) | 8.71 |
| O=C1CC(c2cccnc2)=NN1c1ccccc1 | 16.3 |
| COc1ccccc1OCCSc1nc2ccccc2n1CC(N)=O | 16.1 |
| Cc1ncc(C[n+]2csc(CCOC(=O)C34CC5CC(CC(C5)C3)C4)c2C)c(N)n1.Cl.[Cl-] | 4 |

| SMILES | hERG current change (%, negative = inhibition) at 1uM [%] |
| --- | --- |
| CCOc1ccc2nc(NC(=O)CN3C(=O)C4CCCCC4C3=O)sc2c1 (centres unmarked) | 12.9 |
| COc1ccccc1C(=O)NCC(=O)OCc1csc(-c2ccccc2)n1 | 10.6 |
| Cc1ccc(Nc2oc(C)nc2C#N)cc1 | 10.6 |
| CCOC(=O)C1CCCN(CCC(=O)Nc2cccc(C)c2)C1.Cl (centres unmarked) | -0.545 |
| COc1cccc(NC(=O)CN(C)S(=O)(=O)c2ccc3[nH]c(=O)oc3c2)c1 | 3.98 |
| O=C1c2ccc3c4c(ccc(c24)C(=O)N1NC(=O)C(F)(F)F)CC3 | 10.1 |
| CN1C(=O)CSC1=Nc1cccc(Cl)c1 | 8.17 |
| CCc1ccc(-n2nnnc2SCC(=O)Nc2ccc(NC(C)=O)cc2)cc1 | 20.4 |
| Cc1nn(-c2ccc(C(=O)O)cc2)c2c1C(=O)CC(C)(C)C2 | 9.87 |
| CCOc1ccc2[nH]c3c(c2c1)CNCC3 | 7.07 |
| CC(C)CN(C(=O)CN1CCC(C)CC1)c1c(N)n(CC(C)C)c(=O)[nH]c1=O | 16.1 |
| Cc1cc(C)n(-c2nc(C(=O)O)cs2)n1 | 16.4 |
| COc1cc(C(=O)NCCOc2ccccc2)c(Br)c(OC)c1OC | -26.3 |
| Nc1nnc(CC(=O)N/N=C\c2ccc(-c3cccc(Cl)c3)o2)s1 | -2.3 |
| O=S(=O)(NC1c2cccc3cccc(c23)C1N1CCNCC1)c1ccc(Cl)cc1 (centres unmarked) | -0.188 |
| O=C(c1ccc(F)cc1)N1CCN(c2cc(=O)[nH]nc2-c2ccccc2)CC1 | 6.34 |
| CC(=O)Nc1ccc(NC(=O)CCCNC(=O)c2ccc(Cl)cc2)cc1 | 17.4 |
| OCCN(CCO)c1ccc(C(c2ccc(Cl)cc2)c2ccc(N(CCO)CCO)cc2Cl)c(Cl)c1 | -2.52 |
| O=C(O)[C@@H]1CCCN1C(=O)CCc1c[nH]c2ccccc12 | 8.31 |
| Cc1ccc2cccc(OCC(=O)Nc3ccc(N4CCOCC4)cc3)c2n1 | 5.29 |
| Cc1nn(C)c(C)c1S(=O)(=O)N(CC(=O)Nc1ccccn1)c1ccc(C(C)C)cc1 | 11.2 |
| Cc1ccc(Cn2nc(C)c(C(=O)N3CCN(S(=O)(=O)/C=C/c4ccccc4)CC3)c2C)cc1 | 7.03 |
| O=C1CCC(=O)N1CCc1c[nH]c2ccccc12 | 13 |

| SMILES | hERG current change (%, negative = inhibition) at 1uM [%] |
| --- | --- |
| Cc1ccc(N=C2NC(=O)/C(=C\c3ccsc3)S2)c(C)c1 | 9.18 |
| CCOC(=O)c1c(NC(=O)COC(=O)c2nc(Cl)ccc2Cl)sc(C(=O)NC)c1C | 5.54 |
| COc1ccccc1NC(=O)CCN1C(=O)c2ccccc2C1=O | 7.7 |
| CCOC(=O)/C=C1\SCC(=O)N1CCOc1cccc(Br)c1 | 14.5 |
| O=C(NC(NC(=S)Nc1ccccc1)C(Cl)(Cl)Cl)c1cccc(Cl)c1 (centres unmarked) | 13.5 |
| O=C(O)c1cc(-c2cccs2)nn1-c1ccc(F)cc1 | 9.27 |
| O=c1[nH]c(N2CCOCC2)nc2c1CCCC2 | 4.88 |
| NC(=O)c1ccc(NS(=O)(=O)c2ccccc2F)cc1 | 2.75 |
| C#CCOCCOCCOCCNc1nc(N2CCN(C(=O)[C@H](C)n3cc(CCC[NH+]=C(N)N)nn3)CC2)nc(N2CCN(C(=O)[C@H](C)n3cc(CCC[NH+]=C(N)N)nn3)CC2)n1.[Cl-] | 6.86 |
| CCCn1c(SCC(=O)Nc2sc(C)c(C)c2C#N)nnc1C(C)C | 5.62 |
| Cc1cc(O)c2c(c1)OC(C)(C)C1=C2CC(C)CC1 (centres unmarked) | 13.5 |
| NC(=O)CSc1oc(-c2ccc(F)cc2)nc1S(=O)(=O)c1ccccc1 | 5.93 |
| CCSc1nnc(NC(=O)c2c(-c3ccccc3Cl)noc2C)s1 | 10.7 |
| Cc1cccc(NC(=O)CSCC(=O)N(CCC(C)C)c2c(N)n(Cc3ccccc3)c(=O)[nH]c2=O)c1 | 5.72 |
| Fc1ccc(N2CCN(Cc3cc4c(cc3Br)OCO4)CC2)cc1 | 9.86 |
| CCOC(=O)N1CCN(C(=O)C2CCC(=O)N(CCCc3ccccc3)C2)CC1 (centres unmarked) | 9.96 |
| CCN(CC)CCNCc1ccc(OCc2ccc(Cl)nc2)c(OC)c1 | 3.39 |
| CCC(=O)Nc1cc(SCCO)cc([N+](=O)[O-])c1 | 12 |
| CC(C)N1CC(COc2ccc(Cl)cc2Cl)OC1=O (centres unmarked) | -13 |
| CC(NS(=O)(=O)c1ccc2[nH]c(=O)c(=O)[nH]c2c1)C(=O)O (centres unmarked) | 3.87 |
